The values that follow come from the supplement of paper PMC11417369.

± gives the standard deviation of the averaged measurements. The list shows a part of the results.

The test system of the experiment is PfAP2-EXP AP2 domain (GST-tagged). As to the kind of experiment: gcPBM binding intensity (ln(normalized median fluorescence intensity)); higher = stronger DNA binding. Summed up:
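Binding of GST-tagged P. falciparum DNA-binding domains, expressed in E. coli and used at about 25 μg on average, was carried out for 1 h in 1× PBS containing 1% milk, 0.2 mg/ml BSA, 0.5% salmon testes DNA and 0.03% Triton X-100. The target was an Agilent 4 × 180k array of primer-extended double-stranded 36-bp intergenic genomic probes plus negative controls, read with Alexa488 anti-GST antibody at 488 nm. Binding intensity is the highest Masliner-normalised natural-log median intensity across replicate spots of either probe orientation.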
Consider “CTTAAAATGATAATATGTACACATAAATAATATATA [XGTACX_site8330]”, for which the “gcPBM binding intensity (ln)” value is 8.56 ± 0.3.

Take “TATATAATATTACGTTGTACACTTTAATCTCCCTTC [XGTACX_site5577]”: the “gcPBM binding intensity (ln)” value came to 8.89 ± 0.51.

Consider “ACTAATATGCAATATTGTACATATATATAGAAATAT [XGTACX_site5273]”, for which the “gcPBM binding intensity (ln)” value was found to be 8.66 ± 0.36.

For the sequence “ACCATTTGAAAATTCACACACTTTATTTTGTTATAT [CACACA_site5976]”, the “gcPBM binding intensity (ln)” value was found to be 8.85 ± 0.33.

Regarding “AATATATCGCATAGTTGTACAGAATTTTTACTTTTA [XGTACX_site8192]”, the “gcPBM binding intensity (ln)” value stood at 8.73 ± 0.51.

For “ATTGAAAAATAAAAATGTACACATGTAGCATACCAT [XGTACX_site3275]”, the “gcPBM binding intensity (ln)” value was 8.69 ± 0.41.

Consider “TATAATCAATGCCAAAGTACATATTAATATATTTAT [XGTACX_site4558]”, for which the “gcPBM binding intensity (ln)” value was 8.4 ± 0.34.

“ACTTGACACGGACACACACACATATATAAAAAAAAA [CACACA_site4576]”: the “gcPBM binding intensity (ln)” value worked out at 8.62 ± 0.42.

On to “TTTTTTTATTATCATGCACACATTTTTTTTTTTTAC [CACACA_site2253]”, for which the “gcPBM binding intensity (ln)” value was 8.72 ± 0.39.

On to “ATAATAAAAATAAGAGAATAAAAATGCAATTTAATG [CACACA_negctrl_site878]”, for which the “gcPBM binding intensity (ln)” value worked out at 8.65 ± 0.35.

“TCCTTTATTTTTAAATGTACAAATATTATCTCCTCA [XGTACX_site5856]”: the “gcPBM binding intensity (ln)” value came to 8.53 ± 0.35.

As for “TGATTCTTTTGTATCACACACACTTAGTTTAATTTT [CACACA_site2404]”, the “gcPBM binding intensity (ln)” value was 8.62 ± 0.41.

Take “ATTTATAATGTGTATACACACATATATAGATTTGCT [CACACA_site6440]”: the “gcPBM binding intensity (ln)” value amounted to 8.46 ± 0.33.

Regarding “ATTGATCGGATAAAATGTACAAATATATATATATAT [XGTACX_site7345]”, the “gcPBM binding intensity (ln)” value was 9.96 ± 0.19.

Take “AACTCACATAAATTCACACAAATGTATATTCATATA [CACACA_site4554]”: the “gcPBM binding intensity (ln)” value was found to be 8.4 ± 0.44.

In the case of “AAATTATAATATAATACACACATAAAAAAAAAATCA [CACACA_site3634]”, the “gcPBM binding intensity (ln)” value was determined as 8.6 ± 0.43.

In the case of “TATATATATATATATTGTACACATATATATTTACGA [XGTACX_site4791]”, the “gcPBM binding intensity (ln)” value is 10.1 ± 0.21.

Consider “AACATGAAAGATAGCAAAAAAAAAAAAAAAAAAAAA [TGCATGCA_negctrl_site607]”, for which the “gcPBM binding intensity (ln)” value turned out to be 7.92 ± 0.47.

As to “AAAAAATAATAAATCACACATATTATATATATATAT [CACACA_site5838]”, the “gcPBM binding intensity (ln)” value turned out to be 9.88 ± 0.27.

Consider “CATATTAATATTATGGGTACATATAAATTTACATTC [XGTACX_site687]”, for which the “gcPBM binding intensity (ln)” value was found to be 8.64 ± 0.38.

In the case of “TCTTTTTTTATTTTATTTTTTTTTTTTAAATAATTC [TGCATGCA_negctrl_site372]”, the “gcPBM binding intensity (ln)” value was found to be 8.44 ± 0.4.

As to “AAAACATAAATACATACACACATAATATATATTAAT [CACACA_site109]”, the “gcPBM binding intensity (ln)” value stood at 8.79 ± 0.25.

On to “ATTATAATATTGTTATGTACATAAAAATTATTGAAT [XGTACX_site4476]”, for which the “gcPBM binding intensity (ln)” value was 8.64 ± 0.26.

With “ATAATATATTTATAATGTACATAAGAACAAATTAAA [XGTACX_site1745]”, the “gcPBM binding intensity (ln)” value came out at 8.75 ± 0.41.

For “GGTATATTAAAATAGGTGCATAAAACTAAGAGAAAA [GTGCAC_site9781]”, the “gcPBM binding intensity (ln)” value was 9.33 ± 0.028.

Consider “ACGTTTGATACACATAAAGTTTTCCTTTGAATGTAC [CACACA_negctrl_site106]”, for which the “gcPBM binding intensity (ln)” value is 8.53 ± 0.42.

In the case of “AAAAATTACCTGACTTGTACATAATTTAAGAACAAT [XGTACX_site6233]”, the “gcPBM binding intensity (ln)” value was determined as 8.45 ± 0.36.

Consider “ATAAAATAAAAGTGTACACAAGAAAATATGTTATGT [CACACA_site6033]”, for which the “gcPBM binding intensity (ln)” value came to 9.44 ± 0.59.

Take “TGTGCTATATTCATATGTACATATAATTATTATATA [XGTACX_site3549]”: the “gcPBM binding intensity (ln)” value was determined as 8.86 ± 0.028.

With “AATAATACACAATTTTGTACGTATTTAAAATATATT [XGTACX_site45]”, the “gcPBM binding intensity (ln)” value stood at 8.56 ± 0.41.

On to “TAAAATATATAATAATGTACATATTTTTATTTAGGA [XGTACX_site4987]”, for which the “gcPBM binding intensity (ln)” value was found to be 8.15 ± 0.31.

On to “AATTAAAAACATTTCACACATAAAAATGAAATATAT [CACACA_site5199]”, for which the “gcPBM binding intensity (ln)” value is 8.53 ± 0.3.

As for TATTTATGAGAAATAGTGCAAAGATATGATCTTTAA, the “gcPBM binding intensity (ln)” value is 8.28 ± 0.23.

Turning to “TGTATGAAATATATTACACACATATAAAATCTATAT [CACACA_site6514]”, the “gcPBM binding intensity (ln)” value amounted to 8.35 ± 0.57.

Consider “TTGATGTTGGTAGGATGTACGGTACCGGTAAAGTTT [XGTACX_site7705]”, for which the “gcPBM binding intensity (ln)” value amounted to 8.92 ± 0.49.

With “TTTTTAATTTTTTGTTGTACATATAATATATTATTA [XGTACX_site4903]”, the “gcPBM binding intensity (ln)” value turned out to be 8.6 ± 0.27.

Consider “AAGCTTCATTAATATACACACATATATGCGTATATT [CACACA_site3695]”, for which the “gcPBM binding intensity (ln)” value was found to be 8.47 ± 0.4.

As for “AAATTTGAAGAATATTGTACGCATAATAATTAAATA [XGTACX_site4300]”, the “gcPBM binding intensity (ln)” value worked out at 8.82 ± 0.41.

As for “TATATAATTATAAGAACACACATATATATATATATA [CACACA_site2472]”, the “gcPBM binding intensity (ln)” value is 10.2 ± 0.2.

As for “ATATATATATATTGCACACACAATTATTATTATTAT [CACACA_site2299]”, the “gcPBM binding intensity (ln)” value turned out to be 10.03 ± 0.035.

For the sequence “TATATATATATTTTAACACACACATATATATATTTA [CACACA_site8892]”, the “gcPBM binding intensity (ln)” value came to 9.56 ± 0.21.

For the sequence “ATGCTTTTTAAATGATTGCACTAGATTGTAATATGT [GTGCAC_site9666]”, the “gcPBM binding intensity (ln)” value amounted to 8.62 ± 0.33.

Regarding “AATTATATATTTGAGAGTACATATGTAATGTTTATA [XGTACX_site6970]”, the “gcPBM binding intensity (ln)” value is 8.57 ± 0.33.

With “GTGCATATCTGATATACACACAATAAAATAGTATGT [CACACA_site7203]”, the “gcPBM binding intensity (ln)” value is 8.48 ± 0.28.

In the case of “TATGATACATAAATATGTACGTATAATATATATTTA [XGTACX_site7002]”, the “gcPBM binding intensity (ln)” value was 8.39 ± 0.35.

As for “CATATATTATTTATACGTACTAATAAAATAAATCAA [XGTACX_site1030]”, the “gcPBM binding intensity (ln)” value came out at 8.52 ± 0.26.

In the case of “CCCGTAAATTATGAGTGTACGTTATTTTTTAAAATG [XGTACX_site3946]”, the “gcPBM binding intensity (ln)” value stood at 8.81 ± 0.49.

For the sequence “ACATATACATATATATGTACATAAATATATATATAT [XGTACX_site8630]”, the “gcPBM binding intensity (ln)” value is 9.64 ± 0.42.

As to “TTCTAACTTTTAAACACACAAATATAAATAAGTATA [CACACA_site7473]”, the “gcPBM binding intensity (ln)” value is 8.29 ± 0.62.

As for “AAGAATAATAATAAATGTACACAATATTATATATAT [XGTACX_site5525]”, the “gcPBM binding intensity (ln)” value was 8.67 ± 0.085.

Turning to “AAATGAACAAGTGGCACACACACATTATAACTAATT [CACACA_site9048]”, the “gcPBM binding intensity (ln)” value was determined as 8.49 ± 0.54.

For “GAACGTATCATGTGTACACACAAATTGTTTTTTTTT [CACACA_site2020]”, the “gcPBM binding intensity (ln)” value was found to be 8.79 ± 0.39.

Turning to TGCAAGCTTATATAGGTGCACATGTATACGTGTTCA, the “gcPBM binding intensity (ln)” value came out at 9.01 ± 0.25.

As to “TATGTAGTCACAAGGTGTACACTTTAACAAATTATG [XGTACX_site8792]”, the “gcPBM binding intensity (ln)” value stood at 8.97 ± 0.42.

“TATTAAAATTAAAAAAAAAAAAAAAAGCAATAAAAA [XGTACX_negctrl_site426]”: the “gcPBM binding intensity (ln)” value came to 8.33 ± 0.71.

Consider “TATATACACAAACACACACACACATACACCCACATA [CACACA_site8504]”, for which the “gcPBM binding intensity (ln)” value was determined as 8.72 ± 0.53.

As for “CACAAAAAGAAACACACACACATATATATATATATA [CACACA_site999]”, the “gcPBM binding intensity (ln)” value is 10.2 ± 0.22.
